Results from PubChem BioAssay AID488969 (Vanderbilt High Throughput Screening Facility, 2010).
Whole data set: some 110,000 compounds, median “z-score” near -0.1, cut for the highest 2% near 2. This is one part of the list.

The compounds below were run against Metabotropic glutamate receptor 8 (Rattus norvegicus) (UniProt P70579) (assay: rat mGluR8 modulators via GIRK flux, primary screen, cell-based, thallium flux, HTS (AID 488969)). Conditions: HEK293 rat mGluR8, GIRK (G protein-gated inwardly rectifying potassium channel) thallium flux, FluoZin2; at 10 µM; stronger effect = higher value; submaximal glutamate (EC20) added with thallium.
Sequence of UniProt P70579 (P70579 whole entry, looked up): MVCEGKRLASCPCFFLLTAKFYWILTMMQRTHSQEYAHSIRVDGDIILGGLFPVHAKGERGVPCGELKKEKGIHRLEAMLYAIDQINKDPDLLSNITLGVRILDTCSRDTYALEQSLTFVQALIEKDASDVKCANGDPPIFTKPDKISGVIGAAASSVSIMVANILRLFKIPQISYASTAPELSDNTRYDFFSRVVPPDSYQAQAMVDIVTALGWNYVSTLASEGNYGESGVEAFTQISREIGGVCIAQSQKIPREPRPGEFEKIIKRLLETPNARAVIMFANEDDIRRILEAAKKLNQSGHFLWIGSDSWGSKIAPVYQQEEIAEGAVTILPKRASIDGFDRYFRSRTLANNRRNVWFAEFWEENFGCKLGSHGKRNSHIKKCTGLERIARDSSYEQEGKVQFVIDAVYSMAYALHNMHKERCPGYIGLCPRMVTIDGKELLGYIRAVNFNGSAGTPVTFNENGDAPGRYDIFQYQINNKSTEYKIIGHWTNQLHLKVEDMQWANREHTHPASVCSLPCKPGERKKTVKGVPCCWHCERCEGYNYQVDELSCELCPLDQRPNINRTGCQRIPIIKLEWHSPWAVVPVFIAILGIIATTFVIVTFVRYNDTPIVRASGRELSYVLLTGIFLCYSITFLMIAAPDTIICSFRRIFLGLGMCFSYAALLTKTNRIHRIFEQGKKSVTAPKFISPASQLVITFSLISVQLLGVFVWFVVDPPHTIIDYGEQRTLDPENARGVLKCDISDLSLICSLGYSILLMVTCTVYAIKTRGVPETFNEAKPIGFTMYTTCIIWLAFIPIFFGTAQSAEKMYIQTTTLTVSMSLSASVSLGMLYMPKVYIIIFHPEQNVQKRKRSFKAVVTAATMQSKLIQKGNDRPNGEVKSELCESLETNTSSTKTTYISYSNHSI
In the case of COC(=O)C1(C)NC(c2cccs2)C2C(=O)N(c3ccccc3F)C(=O)C21 (centres undefined), the z-score is reported as -0.835.
Cc1ccc(S(=O)(=O)N2CCCN(S(=O)(=O)c3ccc(C)cc3)CC2)cc1 was tested, and the z-score was -0.326.
Compound Cc1cccc(S(=O)(=O)C(C#N)c2nc3ccccc3nc2N2CC(C)OC(C)C2)c1 (centres undefined) has a z-score of -0.264.
In the case of COC(=O)c1cccc(NC(=O)NC2CCCN2S(=O)(=O)c2ccc(Cl)cc2)c1 (centres undefined), the z-score is reported as -0.225.
CN(c1ccccc1)c1ccc(/C=C(\C#N)c2nnc3n2CCCCC3)cc1[N+](=O)[O-] was tested, and the z-score was -0.29.
With COc1ccc(OC)c(/C(O)=C/C(=O)C(=O)Nc2ccccc2OC)c1 the z-score was 0.0631.
CCN(CC)c1ccc2cc(C(N)=O)c(=O)oc2c1 gave a z-score of -0.0435.
Work on Cc1c(NC(=S)NC(NC(=O)CC(C)C)C(Cl)(Cl)Cl)c(=O)n(-c2ccccc2)n1C (centres undefined) yielded a z-score of 2.53.
CCCC(=O)NC(=S)NNC(=O)c1ccc([N+](=O)[O-])cc1 gave a z-score of -0.394.
In the case of CCCC(=O)Nc1cccc(NC(=O)c2ccc(C)c([N+](=O)[O-])c2)c1, the z-score is reported as -0.0918.
CCOc1ccccc1N1CC(C(=O)N2CCc3ccccc32)CC1=O (centres undefined) gave a z-score of 0.171.
Cc1ccc(S(=O)(=O)NCC(=O)N(CC(=O)NC2CCCCC2)Cc2ccco2)cc1 was tested, and the z-score was -0.184.
For CCOc1ccc(C2C(C(=O)c3ccco3)=C(O)C(=O)N2Cc2cccnc2)cc1OC (centres undefined), the z-score was -0.0112.
Work on COc1ccc(OC)c(NC(=O)Cc2coc3cc(C)cc(C)c23)c1 yielded a z-score of -0.239.
Compound CCOc1ccc(C2CC(=O)c3c([nH]c(C(=O)OC)c3C)C2)cc1OC (centres undefined) has a z-score of 0.845.
CCOC(=O)N1CCN(CC(=O)Nc2cc(C)nn2-c2nc3ccccc3s2)CC1 gave a z-score of -0.328.
Work on Cc1ccccc1NC(=O)NCCCN1CCN(C2CCCCC2)CC1 yielded a z-score of 0.102.
In the case of O=C(c1ccc(Br)o1)N1CCN(c2ccccn2)CC1, the z-score is reported as -0.179.
With CNC(=O)c1cc2cc(OC)ccc2n1CCN(Cc1ccccc1)Cc1ccccc1 the z-score was -0.503.
Work on Cc1cc(C)nc(Nc2ccc(N3CCOCC3)cc2)n1 yielded a z-score of -0.038.
O=C1c2ccccc2C(=O)N1CSc1nnc2c3ccccc3n(CCc3ccccc3)c2n1 showed a z-score of -0.382.
For COc1cc(C(N)=O)cc(Cl)c1OCc1ccccc1, the z-score was 0.223.
Compound N#Cc1c(N)c(C(=O)c2ccc(Br)cc2)n2c1CCC2 has a z-score of -0.243.
Compound Cc1ccc(C(c2ccc(C)o2)c2cccc([N+](=O)[O-])c2O)o1 has a z-score of -0.0995.
Work on CCCCOC(=O)CCc1c(C)[nH]c(=S)[nH]c1=O yielded a z-score of -0.153.
Work on COc1ccc(N2Cc3ccccc3C2)cc1Cl yielded a z-score of -0.173.
Work on CCOc1cc(CNc2ccc3c(c2)CCC3)ccc1OC yielded a z-score of -0.0551.
Cc1ccc(/C(O)=C2/C(=O)C(=O)N(CCCn3ccnc3)C2c2ccccn2)cc1 (centres undefined) gave a z-score of -0.0149.
Compound COC(=O)c1ccc(-c2nc3cc(N)ccc3o2)cc1 has a z-score of 0.393.
With N#Cc1ccc(Oc2ccc(C(N)=O)cc2)cc1C#N the z-score was 0.194.
For O=c1oc2ccccc2c(N2CCCCC2)c1[N+](=O)[O-], the z-score was -0.252.
COC(=O)C1=C(C)OC(N)=C(C#N)C1c1ccc(OC)c(OC)c1OC (centres undefined) showed a z-score of 0.342.
Cc1ccc(C(=O)OC(C(=O)Nc2ccc(Cl)cc2C(F)(F)F)c2ccccc2)cc1 (centres undefined) was tested, and the z-score was -0.813.
In the case of CCN(CC)c1nc2n(c(=O)n1)CCN2CC, the z-score is reported as -0.952.
In the case of Cn1c(C(=O)NC2CC2)cc2c(=O)n(C)c3ccccc3c21, the z-score is reported as -0.0538.
Compound CC(C)c1ccc(N(C(=O)c2csnn2)C(C(=O)NC(C)(C)C)c2ccncc2)cc1 (centres undefined) has a z-score of -0.236.
COC1(OC)N=C(N)C2(C#N)C(c3ccccc3)NC(C)=CC12C#N (centres undefined) gave a z-score of -0.209.
Cn1cnnc1SCC(=O)Nc1ccc(S(=O)(=O)N2CCCC2)cc1 gave a z-score of 0.56.
Work on CN(c1ccccc1)S(=O)(=O)c1ccc(Cl)c(C(=O)Nc2ccc(-c3nc4ccccc4[nH]3)cc2)c1 yielded a z-score of -0.332.
In the case of COc1ccc(CCNC(=O)CC(NC(=O)c2ccccc2Cl)c2ccccc2)cc1 (centres undefined), the z-score is reported as -0.76.
In the case of CCCCCc1nc2c(C#N)c(-c3ccc(Cl)cc3)ccn2n1, the z-score is reported as 1.44.
In the case of O=C(CSc1nc2ccccc2[nH]1)Nc1ccc2c(c1)CCC2, the z-score is reported as -0.809.
For O=C(O)/C=C/C(=O)NC1CCS(=O)(=O)C1 (centres undefined), the z-score was 0.219.
With O=C(Oc1ccc(-c2nnco2)cc1)N(c1ccccc1)c1ccccc1 the z-score was 0.519.
In the case of Cc1ccc(C)c(NC2=CC(=O)CC(C)(C)C2)c1C#N, the z-score is reported as 0.559.
For Cc1cc(C)c(Cn2cnc(-c3ccc([N+](=O)[O-])cc3)c2)c(C)c1, the z-score was -0.0263.
In the case of COc1cccc(C(=O)Nc2c(C(N)=O)oc3ccccc23)c1, the z-score is reported as -0.199.
With CCOC(=O)c1cnc(-c2ccccc2)nc1Oc1cccc(Cl)c1 the z-score was 1.32.
Work on COC(=O)C(O)(CC(=O)Nc1ccc(OC(F)(F)F)cc1)C(F)(F)F (centres undefined) yielded a z-score of -0.408.
Compound CCOc1ccc(-n2c(-c3ccccc3)c[n+]3c2CCCCC3)cc1 has a z-score of -0.0981.
Compound Cc1ccccc1OCCN1C(=O)NC2(CCc3ccccc32)C1=O (centres undefined) has a z-score of -0.2.
Work on O=C(NS(=O)(=O)Oc1ccc(Cl)cc1)OC[C@@H]1CCCN2CCCC[C@H]12 yielded a z-score of -0.306.
COc1ccc(CCNC(=O)CSc2ccc(-c3ccccc3)nn2)cc1 was tested, and the z-score was -0.255.
For Cc1ccsc1C=C1C(=O)c2ccccc2C1=O, the z-score was -0.421.
COc1ccccc1-c1ccc(Nc2ccc(C(=O)N3CCOCC3)cc2)nn1 was tested, and the z-score was 0.077.
CC(C)Oc1ccc(C(CC(=O)O)NC(=O)C2CCCCC2)cc1 (centres undefined) showed a z-score of -0.827.
O=C(CC1Nc2ccccc2NC1=O)NCCCN1CCCCCC1 (centres undefined) was tested, and the z-score was 2.07.
CCCOc1ccc2c(CC)cc(=O)oc2c1C gave a z-score of -0.352.
CCOC(=O)c1ccc(N2C(=O)c3n[nH]c(-c4ccco4)c3C2c2cccc([N+](=O)[O-])c2)cc1 (centres undefined) was tested, and the z-score was -0.049.
O=C(CN1C(=O)NC2(CCCC2)C1=O)N1CCN(C(=O)c2ccco2)CC1 showed a z-score of -1.15.
With O=C(N/N=C/c1ccc(Br)s1)c1ccccn1 the z-score was -0.156.
COCCN(Cc1cc2cc(C)ccc2nc1Cl)C(=O)Nc1ccccc1C gave a z-score of 0.732.
O=C(/C=C/c1ccc(F)cc1)N1CCN(c2ccccn2)CC1 showed a z-score of -0.488.
For Cc1ccc(/C=N/NC(=O)CC2N=C(Cc3ccccc3)NNC2=O)cc1 (centres undefined), the z-score was 0.126.
For COc1cc(C2C(C#N)=C(C)NC3=C2C(=O)CC(C)(C)C3)ccc1OCCO (centres undefined), the z-score was -0.124.
CCS/C(N)=N/N=C/c1cc(C)ccc1O was tested, and the z-score was -0.389.
Cc1ccc(S(=O)(=O)NCCn2c(C)cc3ccccc32)cc1 gave a z-score of 0.31.
CCCC(=O)Nc1ccc(C(=O)NCCCn2ccnc2)cc1 was tested, and the z-score was -0.152.
Work on CC(=O)C1C(=O)c2c(cccc2[N+](=O)[O-])C1=Nc1ccccc1C (centres undefined) yielded a z-score of 0.403.
With Cc1c(Cl)cccc1NC(=S)NCc1cccs1 the z-score was -0.13.
Cc1ccc(Cn2ccc(NC(=O)c3nc4ncccn4n3)n2)cc1 gave a z-score of -0.0653.
Compound CCN(CC)S(=O)(=O)c1cccc(C(=O)NC(Cc2c[nH]c3ccccc23)c2nnc3n2CCCCC3)c1 (centres undefined) has a z-score of -1.
Work on Cc1nc(Cl)sc1C(=O)NC(C)c1ccc(Cl)cc1 (centres undefined) yielded a z-score of -0.34.
Compound CCOC(=O)CN1N=C(/C=C/c2ccc(C)cc2)CCC1=O has a z-score of -0.0218.
Compound CSc1cccc(NC(=O)COc2cccc3ccccc23)c1 has a z-score of -0.148.
CCn1c(SCc2ccccc2)nnc1C1CCCCC1 was tested, and the z-score was -0.237.
With CCOC(=O)c1c(C=O)c(C)n(Cc2ccccc2Cl)c1C the z-score was -0.394.
Compound Cc1cc(C(=O)CSc2nnc(Nc3ccccc3F)s2)c(C)n1CC1CCCO1 (centres undefined) has a z-score of 1.27.
Cc1ccc(C2=NN(CC(=O)NCc3ccco3)C(=O)CC2)cc1 was tested, and the z-score was 0.126.
Work on COc1cccc(N2C(=O)CC(N3CCN(C(=O)c4ccco4)CC3)C2=O)c1 (centres undefined) yielded a z-score of -0.177.
In the case of O=c1cc(CNc2ccc(Br)cc2)nc2sccn12, the z-score is reported as -0.22.
In the case of Cc1ccccc1NC(=O)Cc1cn(C)c2ccccc12, the z-score is reported as -0.2.
CCCC[n+]1ccn(C2=C([O-])c3ccccc3C(=O)/C2=N\S(=O)(=O)c2ccccc2)c1 showed a z-score of -0.449.
With O=c1c2ccccc2c(=O)n(Cc2ccccc2)n1Cc1ccccc1 the z-score was -0.168.
COc1ccc(N2CCN(CC(O)COc3ccc4c(c3)CCC4)CC2)cc1 (centres undefined) was tested, and the z-score was -0.291.
For Cc1ccc(-c2c3c(=O)n(C)c(=O)n(C)c3cn2-n2cnnc2)cc1, the z-score was 0.604.
COCCSc1nnc(NC(=O)C(C)(C)C)s1 was tested, and the z-score was 0.0842.
Compound O=c1c2c(nc3cc(-c4ccc(Cl)cc4)[nH]n13)CCS2 has a z-score of -0.0793.
Cc1cccc(C)c1NC(=O)c1sccc1SCC#N gave a z-score of -0.19.
O=C(CSc1nnnn1-c1ccccc1)NC(=O)NCc1ccco1 gave a z-score of -0.258.
With CCNc1nc(Oc2ccc(=O)n(-c3ccccc3)n2)nc(N2CCOCC2)n1 the z-score was -0.851.
Cn1c(SCc2cc(=O)[nH]c3ccccc23)nnc1-c1ccco1 showed a z-score of -0.244.
Compound Cc1cc(=O)n2[nH]c(COc3ccccc3)nc2n1 has a z-score of -0.647.
With Cn1c(=O)c2c(nc(SCCN3CCOCC3)n2Cc2ccc(F)cc2)n(C)c1=O the z-score was 0.0865.
O=C(CCc1ccccc1)NC(NC(=S)Nc1ccc(Br)cc1)C(Cl)(Cl)Cl (centres undefined) gave a z-score of -1.29.
Cc1cccc(NC(=O)/C(=C\c2ccc([N+](=O)[O-])o2)NC(=O)c2ccc(Cl)cc2)c1 showed a z-score of -0.673.
With CCC(C)(C(=O)NC1CCCCC1)N(Cc1ccco1)C(=O)c1ccccn1 (centres undefined) the z-score was -0.346.
O=C(/C=C/c1cccc([N+](=O)[O-])c1)N1CCOCC1 showed a z-score of 0.0552.
Compound CCOC(=O)c1c(NC(=O)CSc2nnc(-c3ccc(OC)cc3)o2)sc2c1CCC2 has a z-score of -0.224.
Compound CCCn1c(SCC(=O)Nc2ccc(OCC)cc2)nnc1C(C)C has a z-score of 0.00566.
O=C(Nc1ccc2c(c1)CCC2)c1ccccc1 was tested, and the z-score was -0.395.
With Cc1cc(C(=O)COC(=O)CCC(=O)c2ccc3c(c2)OCCO3)c(C)n1Cc1ccco1 the z-score was -1.19.
Work on CC(=O)c1c(C)[nH]c(C(=O)CSc2nnc(-c3ccco3)n2Cc2ccccc2)c1C yielded a z-score of -1.03.
Cc1cc(C(N)=O)c2ccccc2n1 was tested, and the z-score was -0.302.
With Cc1ccc2cc(CN(CCN3CCCC3)C(=O)Nc3ccc(F)cc3)c(=O)[nH]c2c1C the z-score was 2.05.
For CS(=O)(=O)N1CCN(c2ccc([N+](=O)[O-])c(N3CCOCC3)c2)CC1, the z-score was -0.494.
N#Cc1nc(-c2ccco2)oc1N1CCc2ccccc2C1 showed a z-score of -1.1.
Compound Cc1ccc(S(=O)(=O)NCC(=O)OCN2C(=O)c3ccccc3C2=O)cc1 has a z-score of 0.0308.
For Cn1c(-c2sccc2OCc2ccccc2)n[nH]c1=S, the z-score was -0.0122.
